Results published in PubChem BioAssay AID588342 (National Center for Advancing Translational Sciences (NCATS), 2011).
Several values for one entry are separate records, joined by “and”; a condition that tells them apart may be missing. Equal entries are not always repeated. Out of some 360,000 compounds screened, about 25,000 (6.9%) were called active. The shares of active, inactive and inconclusive entries below differ from those in the screen. The call rests on the fitted dose curve; in most records, active means well fitted inhibition curve with a large enough effect; inconclusive means small, poorly fitted or top-dose-only effect; inactive means flat fitted curve, though single readings scatter. Potencies beside an inconclusive call are fits to weak or partial responses and may not hold up.

Molecular target: Luciferin 4-monooxygenase (Photinus pyralis) (UniProt P08659)
Assay: qHTS profiling assay for firefly luciferase inhibitor/activator using purifed enzyme and Km concentrations of substrates (counterscreen for miR-21 project); further: nearly all actives have a fitted effect of over 55% in size
Conditions: purified FLuc, luminescence inhibition; series mostly up to 57.5 µM
Outline: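 Biochemical qHTS of compounds, final roughly 60 µM downward over six points, against 10 nM purified firefly luciferase using Km concentrations of substrates (10 uM D-luciferin, 10 uM ATP) in Tris acetate pH 7.5 buffer; luminescence output.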
Potency means the concentration at half of the fitted maximal effect; tags describe the fitted curve by direction and shape.

Chain of UniProt P08659 (P08659 whole entry, looked up): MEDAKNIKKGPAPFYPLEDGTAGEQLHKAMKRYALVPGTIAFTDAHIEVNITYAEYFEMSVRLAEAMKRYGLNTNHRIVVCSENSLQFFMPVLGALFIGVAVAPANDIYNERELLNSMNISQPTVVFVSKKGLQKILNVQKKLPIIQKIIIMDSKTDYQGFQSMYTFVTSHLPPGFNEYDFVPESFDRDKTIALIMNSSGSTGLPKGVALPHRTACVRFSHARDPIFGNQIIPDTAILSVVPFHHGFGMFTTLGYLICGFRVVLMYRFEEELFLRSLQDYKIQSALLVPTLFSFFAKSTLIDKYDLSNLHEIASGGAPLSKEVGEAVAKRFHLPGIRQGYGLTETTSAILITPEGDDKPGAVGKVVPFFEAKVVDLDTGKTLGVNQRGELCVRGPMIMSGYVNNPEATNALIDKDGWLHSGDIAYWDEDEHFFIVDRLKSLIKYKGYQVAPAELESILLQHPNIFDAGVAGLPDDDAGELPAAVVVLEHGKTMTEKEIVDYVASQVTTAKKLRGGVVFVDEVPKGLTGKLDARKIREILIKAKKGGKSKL

SMILES	Potency
O=C(Nc1nc2c(s1)CCCC2)c1ccccc1F	active: 0.338 µM
O=c1oc2ccccc2c(NCc2cccc(F)c2)c1[N+](=O)[O-]	inactive
CN(C)C(=O)CSc1nc2ccc(N3C(=O)c4ccccc4C3=O)cc2s1	inconclusive: 8.49 µM [inhibitor, partial curve]
Cc1ccc(-c2csc(SCC(=O)Nc3cc(C)on3)n2)cc1	inconclusive: 8.49 µM [inhibitor, single point]
COc1ccc(CCNC(=O)c2cnc3sc(N4CCC(C)CC4)nn3c2=O)cc1OC	inactive
O=C(O)c1cc(-c2ccco2)nc2ccc(Br)cc12	active: 23.9 µM and active: 19 µM
COc1cc(C(=O)O)cc(NC(=O)c2ccco2)c1OC	inconclusive: 37.9 µM [inhibitor, partial curve, poor fit]
CC1=CN2C(=N)/C(=C/c3ccc(Sc4ccc(C)cc4)o3)C(=O)N=C2S1	active: 19 µM
CCC1CCCCN1C(=O)CSc1n[nH]c(-c2ccccc2Cl)n1 (configuration not stated)	inconclusive: 37.9 µM [inhibitor, partial curve, poor fit]
COCc1cc(SC2CCCCC2)nc(C)n1	inconclusive: 30.1 µM [inhibitor, single point]
COCCCNc1ncnc2sc3c(c12)CCC(C)C3 (configuration not stated)	inconclusive: 21.3 µM [inhibitor, single point]
Cc1ccc(N(Cc2ccccc2)C(=O)c2ccc(Cl)c(S(=O)(=O)N3CCOCC3)c2)cc1	inconclusive: 37.9 µM [inhibitor, single point]
CCN(c1ccc(OC)cc1)S(=O)(=O)c1nnc(NC(=O)c2ccccc2C)s1	inactive
C/C(CC(=O)Nc1cc(C)ccn1)=N\NC(=O)c1cccc(C)c1	inactive
CCOC(=O)c1csc(NC(=O)c2ccccc2)n1	active: 12 µM
COc1cccc(CNC(=O)c2ccc(-c3nc(CS(=O)(=O)c4ccccc4)c(C)o3)cc2)c1	inconclusive: 12 µM [inhibitor, partial curve, poor fit]
Cc1ccccc1NS(=O)(=O)c1cccc(C(=O)Nc2cccc(C(=O)O)c2)c1	inconclusive: 37.9 µM [inhibitor, partial curve, poor fit]
COc1ccc(CCNC(=O)C2CCN(c3ncnc4c3nc3n4CCCCC3)CC2)c(OC)c1	inconclusive: 10.7 µM [inhibitor, partial curve, poor fit]
O=C(Nc1cccc(-c2nc3ccccc3s2)c1)C1=COCCO1	active: 16.9 µM
CCCc1cc(=O)oc2cc(C)c3c(-c4cccc(OC)c4)coc3c12	inactive
CC(C)(C)C1CCc2c(sc(NC(=O)CCC(=O)O)c2C(=O)Nc2ccccc2C(F)(F)F)C1 (configuration not stated)	inconclusive: 23.9 µM [inhibitor, partial curve, poor fit]
Cc1ccc(-c2nnc(Sc3nc4ccccc4o3)c3ccccc23)cc1	inconclusive: 16.9 µM [inhibitor, partial curve]
COc1ccc(-c2cc3ncnc(Cl)c3s2)cc1	active: 3.38 µM
CCN(CC(=O)Nc1ccc(NC(C)=O)cc1)C(=O)CCCOc1ccc(C(C)(C)C)cc1	active: 15.1 µM

SMILES	Potency
Cc1noc(C)c1C(=O)Nc1sc2c(c1C(N)=O)CCCCC2	inconclusive: 6.75 µM [inhibitor, full curve]
Fc1ccccc1CNc1ccc(Cl)c(Cl)c1	inconclusive: 37.9 µM [inhibitor, partial curve, poor fit]
COc1ccc(CNC(=O)COC(=O)c2ccc(OCC3CCCO3)cc2)cc1 (configuration not stated)	inactive
COc1ccc(NC(=O)C(C)n2nnc3sc(-c4ccccc4)cc3c2=O)cc1Cl (configuration not stated)	active: 6.01 µM
CC(C)C(=O)Nc1ccc(NC(=O)c2ccco2)cn1	inconclusive: 26.9 µM [inhibitor, single point]
COc1cccc(NC(=O)C(=O)NCCc2csc(-c3ccc(C(F)(F)F)cc3)n2)c1	inconclusive: 19 µM [inhibitor, partial curve, poor fit]
COc1ccc(NC(=O)c2ccc3ccccc3n2)cc1S(=O)(=O)N1CCCCC1	inconclusive: 23.9 µM [inhibitor, partial curve]
Cc1ccc(C(=O)CNc2cccc(Cl)c2)cc1	active: 2.69 µM
CCN(CC)C(=O)Oc1ccc2ccccc2c1Br	active: 19 µM
O=C(c1ccc2oc(CCCc3ccccc3)nc2c1)N1CCCC1	active: 8.49 µM
Cc1ccc(NC(=O)Nc2cccn(Cc3c(F)cccc3Cl)c2=O)cc1	active: 7.57 µM
Cc1cccc(-c2nc(CSCC(=O)N3CCN(c4ccccc4)CC3)c(C)o2)c1	inactive
COc1ccccc1N1CCN(c2ccc(-c3nc(-c4ccccc4C)no3)cc2[N+](=O)[O-])CC1	inconclusive: 21.3 µM [inhibitor, partial curve]
COc1ccc(-n2nc(C(=O)NCC(=O)N3CCCCCC3)c3ccccc3c2=O)cc1	active: 5.36 µM
CCOC(=O)c1ccc(NC(=O)CSc2nccn2-c2ccc(OCC)cc2)cc1	inactive
CC(=O)COc1cccc2ccc(/C=C/c3ccc(Br)s3)nc12	active: 19 µM
CCC(C)NC(=O)C1CCN(C(=O)c2ccc(-n3ccc4ccccc43)s2)CC1 (configuration not stated)	inconclusive: 15.1 µM [inhibitor, partial curve]
CCn1c(O)c(/C=C/C=C/C=Nc2ccccc2)sc1=S	inconclusive: 12 µM [inhibitor, partial curve, poor fit]
COc1ccc(C2=NO[C@@H]3C(=O)N(c4ccc5c(c4)OCCO5)C(=O)[C@H]23)cc1OC	inconclusive: 21.3 µM [inhibitor, partial curve, poor fit]
FC(F)(F)c1cccc(-c2nnn3c2nc(NC2CCCCC2)c2ccccc23)c1	inactive
COc1cc2c(-c3ccc(O)cc3)nc3c(c(C)nn3-c3ccccc3)c2cc1OC	inactive
CCS(=O)(=O)N1Cc2ccccc2CC1C(=O)Nc1nc2ccc(C)cc2s1 (configuration not stated)	inconclusive: 30.1 µM [inhibitor, partial curve, poor fit]
COc1cccc(C2=NOC(C(=O)Nc3cc(C)nn3-c3ccccc3)C2)c1OC (configuration not stated)	inactive
Cc1cccc(NC(=S)NC(=O)C2CC2)c1	inconclusive: 21.3 µM [inhibitor, partial curve, poor fit]

SMILES	Potency
COc1cccc(/C=C2\SC(=S)N(CCCC(=O)N3CCCCC3CCO)C2=O)c1 (configuration not stated)	inconclusive: 16.9 µM [inhibitor, partial curve]
COc1cccc(C(=O)O/N=C(\N)c2ccccn2)c1	active: 0.0757 µM
O=C(CCN1C(=O)/C(=C/c2ccco2)SC1=S)Nc1ccc(O)cc1C(=O)O	inconclusive: 37.9 µM [inhibitor, partial curve, poor fit]
Cc1nn(CC2CC2)c(=O)n1-c1ccc(C(C)C)cc1	inactive
Cc1cccc(NC(=O)C(Cc2ccccc2)n2cccc2)c1C (configuration not stated)	inactive
CC(OC(=O)Cc1c[nH]c2ccccc12)C(=O)N(C)c1ccccc1 (configuration not stated)	inactive
CCc1ccc(OCCCC(=O)Nc2cccc(C(=O)O)c2)cc1	inconclusive: 37.9 µM [inhibitor, single point]
COc1ccc(C)cc1NC(=O)Nc1cnccn1	inconclusive: 37.9 µM [inhibitor, single point]
Cc1cccc(N(C)c2nc3ccc(C)cc3n3cnnc23)c1	inconclusive: 21.3 µM [inhibitor, single point]
COC(=O)C1(Cc2ccc(O)cc2)OC(=O)C(O)=C1c1ccc(O)cc1 (configuration not stated)	inconclusive: 26.9 µM [inhibitor, partial curve, poor fit]
CCCCOc1ccccc1C(=O)Nc1nonc1-c1ccccc1	inconclusive: 16.9 µM [inhibitor, partial curve, poor fit]
CCCc1ccc(OCC(=O)Nc2sc3c(c2C(=O)OC)CCCCC3)cc1	inactive
CC(=O)c1c(C)[nH]c(C(=O)Nc2ccc(F)cc2F)c1C	inconclusive: 37.9 µM [inhibitor, single point]
COc1ccc(-c2noc(CCCC(=O)NC3CCCC3)n2)cc1	inconclusive: 26.9 µM [inhibitor, partial curve, poor fit]
COc1cc(/C=C2\C(=N)N3N=CSC3=NC2=O)cc(Br)c1OC(=O)c1ccco1	inconclusive: 37.9 µM [inhibitor, partial curve, poor fit]
CC1C/C(=N/Nc2nc3ccccc3[nH]2)CC(C)(C)C1 (configuration not stated)	inconclusive: 19 µM [inhibitor, partial curve, poor fit]
COC(=O)C1C(=O)c2c([nH]c(C(=O)OCCOC(C)C)c2C)CC1C (configuration not stated)	active: 13.5 µM
Cc1cc(C)cc(NC(=O)c2ccc(CN3CCc4ccccc4C3)cc2)c1	inconclusive: 30.1 µM [inhibitor, single point]
Cc1cc2[nH]c(=O)c3ccccc3n2n1	inactive
Cc1ccc(NC2c3ncccc3C(=O)N2Cc2cccs2)cc1C (configuration not stated)	inconclusive: 37.9 µM [inhibitor, partial curve, poor fit]
ClCc1csc(-c2ccc(Cl)cc2)n1	inconclusive: 23.9 µM [inhibitor, single point]
COc1ccc2[nH]c(C(=O)N3CCN(Cc4ccccc4)CC3)cc2c1OC	active: 15.1 µM
O=C1C(C=NC2CC2)=C(O)c2ccccc21	inconclusive: 23.9 µM [inhibitor, single point]
CC1CCCCN1S(=O)(=O)c1ccc(C(=O)Nc2nnc(-c3ccccn3)o2)cc1 (configuration not stated)	inconclusive: 37.9 µM [inhibitor, single point]
